Laboratory results taken from PubChem BioAssay AID1508624 (National Center for Advancing Translational Sciences (NCATS), 2021).
Screen size: about 48,000 compounds; about 120 (0.25%) were called active. Inconclusive results (about 4%) are left out. Calls follow the shape of the dose curve; as a rule, active = well fitted activation curve with a large enough effect; inconclusive = small, poorly fitted or top-dose-only effect, or another doubt; inactive = no such curve, though single readings can be large or run the other way. The list shows a part of the results.

assay: Primary qHTS for Identification of Small Molecule Activators of Huntingtin-Antisense Promoter Activity; conditions: HEK293 HTT-AS promoter firefly luciferase reporter, 24 h; series mostly up to 57.5 µM; activity change, positive = activation: at the top concentration; also: nearly all actives have a fitted effect of over 55% in size
Outline: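 Luminescence was read after Dual-Glo reagent and a 10 min room-temperature incubation. Values were normalized to vehicle (0% activity) and zero RLU (-100% activity). Reporter HEK293 cells had been exposed to compounds (up to 57.5 uM final) for 24 h.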
Potency is read from the fitted curve at half-maximal effect.

SMILES | activity change, positive = activation | Potency
Cc1n[nH]c(C)c1S(=O)(=O)N(CC(=O)NCc1ccccc1Cl)c1ccc(C(C)C)cc1 | inactive: -35.3% | 
Cc1ccc(-n2nnnc2C2CCN(S(=O)(=O)c3ccc(OC(F)(F)F)cc3)CC2)cc1 | inactive: -0.321% | 
CCOc1ccccc1CNC(=O)CCc1cn(Cc2ccc(Cl)cc2)c2ccccc12 | inactive: -27.9% | 
CCN(C(=O)Cn1c(=O)oc2cc(S(=O)(=O)N3CCCC3)ccc21)c1cccc(C)c1 | inactive: -16.6% | 
COc1ccc(NC(=O)CSc2nc(-c3ccco3)cc(C(F)(F)F)n2)c(OC)c1 | inactive: -7.35% | 
CCCCN(C)C(=O)C1CCC(CNS(=O)(=O)c2ccc3c(c2)CC(C)N3C(C)=O)CC1 (stereo not drawn) | inactive: -36.9% | 
CCCc1nn2c(=O)cc(COc3ccc(/C=C(\C#N)C(=O)Nc4ccc(F)cc4)cc3)nc2s1 | inactive: -2.92% | 
CCN(CC)C(=O)Cn1c(SCCOc2ccc(Cl)cc2)nc2ccccc21 | inactive: 3.01% | 
O=C(CCS(=O)(=O)c1cc2c(cc1Cl)NC(=O)CO2)NCCc1ccc(Cl)cc1 | inactive: -7.45% | 
CC(=O)N1c2ccccc2C(=O)C1N1CCN(c2ccc(F)cc2)CC1 (stereo not drawn) | inactive: -17.3% | 
COc1ccc(NC(=O)c2ccc(CNS(=O)(=O)c3ccc4c(c3)C(C)(C)C(=O)N4C)cc2)cc1 | inactive: -35.5% | 
OC[C@H]1O[C@@H](n2cnc3c(=S)nc[nH]c32)[C@H](O)[C@@H]1O | inactive: -57.3% | 
COc1ccc(OC)c(S(=O)(=O)Nc2cc3c(C(C)=O)c(C)oc3c3ccccc23)c1 | inactive: -27.2% | 
COC(=O)c1c(NC(=O)COc2cc(C)c(Cl)c(C)c2)sc2c1CCCC2 | inactive: 1.26% | 
COc1cccc(C2CC(=O)Nc3c2c(=O)n(C)c2ncnn32)c1OC (stereo not drawn) | inactive: -6.32% | 
CCOc1ccc(NS(=O)(=O)c2ccc3c(c2)CCN3C(C)=O)cc1 | inactive: -24.7% | 
COc1ccc(-c2nnc(SCC(=O)Nc3ccc(C(C)=O)cc3)nc2-c2ccc(OC)cc2)cc1 | inactive: 1.43% | 
Cc1ccc(S(=O)(=O)NCC2CCC(C(=O)N(C)Cc3ccccc3)CC2)cc1 (stereo not drawn) | inactive: -28% | 
Cc1ccc(OCC(=O)N(Cc2ccco2)C2CCS(=O)(=O)C2)cc1 (stereo not drawn) | inactive: 7.78% | 
CC(Oc1ccc(F)cc1)C(=O)Nc1cc(-c2ccc(F)c(F)c2)no1 (stereo not drawn) | inactive: -11.1% | 
CCOc1ccc(CCNC(=O)c2c(C)oc3ncnc(N4CCOCC4)c23)cc1 | inactive: -13.7% | 
Cc1cc(C)cc(NC(=O)CN(C)S(=O)(=O)c2ccc3[nH]c4c(c3c2)CCCC4)c1 | inactive: -25.2% | 
Cc1ccc(NC(=O)CN2C(=O)COc3ccc(S(=O)(=O)N4CCCCCC4)cc32)cc1C | inactive: -34.6% | 
COCCCNC(=O)CSc1nc2ccccc2c(=O)n1Cc1ccco1 | inactive: 0.336% | 

SMILES | activity change, positive = activation | Potency
N#C/C(=C\c1ccc(-c2ccc(F)cc2F)o1)c1nc2ccccc2[nH]1 | inactive: -0.128% | 
CCOc1cccc(CNc2ccc(O)cc2)c1OCc1ccccc1Cl | inactive: -19.6% | 
COc1ccc(CNC(=O)c2ccc3[nH]c(C)c(C)c3c2)c(OC)c1 | inactive: -10.3% | 
COc1ccc(C(=O)Nc2ccc(OCc3cc(=O)n4ccccc4n3)cc2)cc1 | inactive: 12.5% | 
CCc1nnc2c(NCCc3ccc(OC)c(OC)c3)nc3ccccc3n12 | inactive: -14.1% | 
COc1ccc(-c2onc(C)c2C)cc1S(=O)(=O)NCc1ccc(Br)cc1 | inactive: -34.7% | 
CCN(CC)CCOC(=O)C(c1ccccc1)C1CCCCC1 (stereo not drawn) | inactive: -11.8% | 
O=C(NC1CCCCC1)c1c[nH]c2ccc(S(=O)(=O)Nc3ccccc3F)cc2c1=O | inactive: -23.9% | 
CCOC(=O)c1ccc(NC(=O)c2c(NCc3sccc3C)sc3c2CCCCC3)cc1 | inactive: -14.6% | 
CC(C)(C)c1ccc(C(=O)NC(Cc2c[nH]c3ccccc23)C(=O)OCC(=O)c2ccccc2)cc1 (stereo not drawn) | inactive: 11.9% | 
CC1CCCN(c2cc3c(cc2F)c(=O)c(S(=O)(=O)c2cccc(Cl)c2)cn3C)C1 (stereo not drawn) | inactive: -13.5% | 
COc1ccc(Cn2c(=O)[nH]c3cc(C(=O)N4CCN(c5cccc(OC)c5)CC4)ccc3c2=O)cc1 | inactive: -23.8% | 
Cc1cccc(OCC(=O)Nc2ccc(-c3nc4cc(C)ccc4o3)c(O)c2)c1 |  | active: 0.501 µM
CCC1CN(C(=O)N2CCC(C(=O)NCCC3=CCCCC3)CC2)c2cc(C)ccc2O1 (stereo not drawn) | inactive: -16.4% | 
CCn1cc2nc(SCc3ccc(C)cc3)n(CCc3ccccc3)c(=O)c2n1 | inactive: -21.8% | 
COc1ccc(S(=O)(=O)N(CC(=O)N(C)Cc2ccccc2)c2ccc(Cl)cc2)cc1 | inactive: -24.9% | 
Cc1ccc(OCC(=O)Nc2ccc(Cl)c(-c3nc4ccccc4[nH]3)c2)cc1C | inactive: -23.8% | 
COc1cc(Cc2cnc(N)nc2N)cc(OC)c1OC | inactive: -10.2% | 
COc1ccc(NC(=O)CSc2nnc(NC(=O)Nc3ccccc3)s2)c(OC)c1 | inactive: -2.22% | 
CCc1ccc(NC(=O)CSc2nc3ccccc3nc2Cc2ccccc2OC)cc1 | inactive: -9.7% | 
O=C(Nc1nnc(S(=O)(=O)N2CCN(c3ccc(F)cc3)CC2)s1)c1ccc(Cl)cc1 | inactive: -8.82% | 
COc1ccc(C)cc1NC(=O)C(=O)NCC1(c2ccccc2)CCCC1 | inactive: -2.67% | 
CCCCSCCCNC(=O)CN1C(=O)COc2ccc(S(=O)(=O)N3CCC(C)CC3)cc21 | inactive: -25.4% | 
Cc1ccc(Cl)cc1NC(=O)COCc1cc(-c2ccco2)on1 | inactive: -7.47% | 

SMILES | activity change, positive = activation | Potency
CC(C)(C)c1ccc(C2NC(=O)c3n[nH]c(-c4cccs4)c32)cc1 (stereo not drawn) | inactive: -42.1% | 
Cc1ccc(NC(=O)Cn2c(CCC(=O)O)ccc2-c2ccc(Cl)cc2)cc1 | inactive: -13% | 
COC(=O)c1ccc(NC(=O)Cn2nc(C(=O)Nc3ccc(C)cc3)ccc2=O)cc1 | inactive: -4.14% | 
COc1ccccc1N1CCN(c2ncnc3c2nc2n3CCCC2)CC1 | inactive: -32.6% | 
Cc1ccc(Cn2cc(CCC(=O)NCc3ccccc3F)c3ccccc32)cc1 | inactive: -18.7% | 
CCN(CC)S(=O)(=O)c1ccc2c(c1)N(CC(=O)N(C)Cc1ccccc1)C(=O)CO2 | inactive: -21.1% | 
O=C(CNC(=O)c1ccc(Cl)cc1)OCc1cc(=O)n2ccsc2n1 | inactive: -2.93% | 
COc1ccc(-c2[nH]c3c(c2-c2c(-n4cccc4)n(C)c(=O)n(C)c2=O)c(=O)n(C)c(=O)n3C)cc1 | inactive: -2.11% | 
COc1cccc(C(=O)Nc2cc3cc(OC)ccc3oc2=O)c1 | inactive: 0.0126% | 
Cc1cc(C)c2c(n1)SCCN2C(=O)Nc1ccc(C(=O)Nc2cc(Cl)ccc2C)cc1 | inactive: 1.19% | 
Cc1cc(C(=O)NCCc2ccc(Cl)cc2)c2c(C)nn(-c3cccc(F)c3)c2n1 | inactive: -15.4% | 
COC(=O)c1cc2sc(Cl)cc2n1Cc1nc(-c2ccc(OC)cc2)oc1C | inactive: -0.7% | 
COc1ccc(N(CC(=O)NCCc2cccc(C)c2)S(=O)(=O)c2c(C)noc2C)cc1 | inactive: -32% | 
COc1ccc(CNC(=O)CSc2ncc3c(n2)-c2cc(Cl)ccc2N(Cc2ccccc2)S3(=O)=O)cc1OC | inactive: -17.4% | 
COc1ccccc1NC(=O)Cn1c(=O)n(CCc2ccccc2)c(=O)c2c3c(sc21)CN(C(C)=O)CC3 | inactive: -39.6% | 
Cc1nnc(SCc2nc(-c3ccc(Cl)cc3)no2)n1-c1ccc(F)cc1 | inactive: -39.1% | 
O=C(c1ccccc1)n1nc(-c2ccco2)nc1NCc1cccs1 | inactive: 33.5% | 
Cc1ccc(Cn2cc(/C=C(/C#N)C(=O)Nc3cccc(Cl)c3)c3ccccc32)cc1 | inactive: -28.2% | 
COc1cc2c(cc1OC)CN(CCc1ccc(NC(=O)c3cc(OC)c(OC)cc3NC(=O)c3cnc4ccccc4c3)cc1)CC2 | inactive: -38.8% | 
O=c1cc(-c2ccccc2)nc2cc(-c3ccc(F)cc3)[nH]n12 | inactive: 0.246% | 
CCC(=O)OCc1cnc(C)c2oc(=O)c(C(=O)Nc3ccccc3C(F)(F)F)cc12 | inactive: -14.4% | 
Cc1cccc(N(C)C(=O)CN(C)S(=O)(=O)c2ccc3[nH]c4c(c3c2)CCCC4)c1 | inactive: -32.9% | 
COc1cc2ccccc2cc1C(=O)Nc1cc(-c2nc3ccccc3o2)ccc1C | inactive: 13.9% | 
COc1cccc(CNC(=O)C(NS(=O)(=O)c2ccc3c(c2)oc(=O)n3C)C(C)C)c1 (stereo not drawn) | inactive: 0% | 

SMILES | activity change, positive = activation | Potency
Cc1c(C(=O)OCC2CCCCC2)[nH]c2c1C(=O)CC(c1ccc(Cl)cc1)C2 (stereo not drawn) | inactive: -2.43% | 
Cc1cccc(NC(=O)CSc2nc(C3CCCC3)nc3c2c(=O)n(C)c(=O)n3C)c1C | inactive: -8.52% | 
Cc1nnsc1C(=O)Oc1ccc(C(C)C)cc1 | inactive: -10.9% | 
CCN(CC)C(=O)c1sc2c(c1C)c(=O)n(-c1ccc(C)c(C)c1)c(=O)n2Cc1cc(=O)n2c(C)cccc2n1 | inactive: -25.6% | 
COc1ccc2c(c1)-c1nc(NC(=O)c3ccccc3F)sc1CC2 | inactive: 2.17% | 
CCn1c(=O)cc(OCC(=O)NCc2ccccc2Cl)c2ccccc21 | inactive: -17% | 
N#Cc1ccccc1Cn1c(=O)n(CCCCC(=O)NCc2ccc3c(c2)OCO3)c(=O)c2ccccc21 | inactive: -24.3% | 
Cc1ccc(CNC(=O)c2nc(-c3ccc(Cl)cc3)n3c2CCCCC3)cc1 | inactive: -9.95% [at 11.5 µM, percent change from vehicle, -100% = no light] | 
Cc1ccccc1C(=O)Nc1nnc(S(=O)(=O)N(C)Cc2ccc(Cl)cc2)s1 | inactive: -32.1% | 
O=C(Cc1ccc(F)cc1)N1CCC(c2nc3c(nnn3Cc3ccc(F)cc3)c(=O)[nH]2)CC1 | inactive: -20.3% | 
COc1ccc(OCC(=O)Nc2ccc(O)c(-c3nc4ccccc4s3)c2)cc1 | inactive: 8.58% | 
CCCn1c(=O)c2sccc2n2c(CCCC(=O)Nc3ccccc3OCC)nnc12 | inactive: -3.22% | 
COc1ccc(CC(=O)N2CC(=O)Nc3ccc(Br)cc3C2c2ccc(F)cc2)cc1 (stereo not drawn) | inactive: -18.4% | 
Cc1ccc(CN(C(=O)COc2ccc(C(C)C)cc2)C2CCS(=O)(=O)C2)o1 (stereo not drawn) | inactive: -16.5% | 
CCCCNc1nc(Oc2ccc(OCCC)nn2)nc(N(C)C)n1 | inactive: -8.68% | 
COc1ccc(OC)c(CCNC(=O)CN2C(=O)COc3ccc(S(=O)(=O)N4CCC(C)CC4)cc32)c1 | inactive: -23.2% | 
O=C(CCSCc1ccccc1F)N1CCN(c2ccc(Cl)cc2)CC1 | inactive: -20.8% | 
CCCN1CCN(CCNC(=O)Nc2cc(C)ccc2OC)CC1 | inactive: 0.838% | 
COc1cc2c(C(=O)Nc3ccc(C)cc3Br)cn(C)c(=O)c2cc1OC | inactive: -14.6% | 
CCOC(=O)c1ccc(NC2=CC(c3ccc(O)c(OCC)c3)N(c3ccc(C(=O)OCC)cc3)C2=O)cc1 (stereo not drawn) | inactive: -0.895% | 
CCOc1ccccc1NC(=O)c1sc2nc(-c3ccc(OC)cc3)ccc2c1N | inactive: 7.56% | 
